According to PubChem BioAssay (NCATS):
The shares of active, inactive and inconclusive entries below differ from those in the screen. No potency is given beside an inconclusive call; the fits are too rough. The source made the active and inactive calls. Calls follow the shape of the dose curve; as a rule, active = well fitted cell-killing curve with a large enough effect; inconclusive = small, poorly fitted or top-dose-only effect, or effect the other way; inactive = no such curve, though single readings can be large or run the other way.

Test: Viability qHTS for spleen associated tyrosine kinase inhibitor (SYKi) drug resistant MV4-11 cells (AID 1963824); also: nearly all actives have a fitted effect of over 35% in size
Settings: SYKi-resistant MV4-11 viability, CellTiter-Glo, 72 h; series mostly up to 45 µM
Procedure, shortened: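 CellTiter-Glo luminescence, read 10 min after reagent addition, reports viability after a 72 hr compound exposure. Cells are an MV4-11 line made resistant to SYK inhibition, seeded at 500 per well onto compound-containing plates.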
Potency is read from the fitted curve at half-maximal effect; tags tell the direction and shape of the fitted curve.

Row | Structure (SMILES) | Potency
1 | O=c1cc(N2CCOCC2)nc2c3ccccc3ccn12 | inconclusive [cytotoxic, partial curve, poor fit]
2 | CC(C)C(=O)Nc1cccc(C(F)(F)F)c1 | inconclusive [cytotoxic, partial curve, poor fit]
3 | CCC(C)/C=C(C)/C=C/C1=CC2=C(Cl)C(=O)C(C)(OC(C)=O)C(=O)C2=CN1CCCC(=O)O (stereo unspecified) | inconclusive [cytotoxic, single point]
4 | COc1ccc(CC(=O)NCc2ccccc2-c2ccccc2C(=O)NCCc2cccnc2)cc1 | inconclusive [cytotoxic, partial curve]
5 | C=C1C(=O)OC2/C=C(\COC(C)=O)CC/C=C(\C=O)CC(OC(=O)CC(C)C)C12 (stereo unspecified) | active: 1.12 µM
6 | CC(C)(O)CC(CO)NC(=O)CC(O)CC(=O)Cc1ccccc1 (stereo unspecified) | inactive
7 | CNCCCC1(c2ccccc2)OC(C)(C)c2ccccc21 (stereo unspecified) | inconclusive [cytotoxic, partial curve]
8 | CN(C)CC(=O)N1CCC[C@@H](n2nc(-c3ccc(Oc4ccccc4)cc3)c3c(N)ncnc32)C1 | inconclusive [cytotoxic, full curve]
9 | O=C(NCC(=O)N1CCCC1)Nc1ccc2ccccc2c1 | inconclusive [cytotoxic, partial curve, poor fit]
10 | C=C1CC/C=C(/CO)C(=O)C[C@@H]2[C@@H]1CC2(C)C | inactive
11 | COC(=O)Cc1cc2c(c([N+](=O)[O-])c1)N(C(=O)CC[C@H](N)C(=O)O)CC2 | inconclusive [cytotoxic, partial curve, poor fit]
12 | O=C(NCCc1c[nH]c2ccc(O)cc12)c1ccc2ccccc2c1O | inconclusive [cytotoxic, partial curve, poor fit]
13 | O=C(OCC1=CC(Cl)C(O)C(OC(=O)c2ccccc2)C1O)c1ccccc1 (stereo unspecified) | inconclusive [cytotoxic, single point]
14 | COC(=O)c1c(Cl)c(Cl)c(C(=O)OC)c(Cl)c1Cl | inconclusive [rising, full curve, poor fit]
15 | O=C(c1ccccc1)c1ccccc1 | inactive
16 | O=C1CCC(=O)N(O)CCCCCNC(=O)CCC(=O)N(O)CCOCCNC(=O)CCC(=O)N(O)CCCCCN1 | inconclusive [cytotoxic, partial curve, poor fit]
